# Reference: the supplement of paper PMC8728848
# The other results are listed elsewhere or left out.
# B1: AAL (Agrocybe aegerita), Q6WY08 (protein)
# chain: MQGVNIYNISAGTSVDLAAPVTTGDIVTFFSSALNLNAGAGNPNNTTLNLFAENGAYLLHIAHRLQENVIIFNSRQPDGPWLVEQRVSDVANQFAGIDGKAMVTVFDHGDKYQVVINEKTVIQYTKQISGLTLSLSYNATEETSIFSTVVEAVTYTGLALEHHHHHH
# Tests used:
# Test in all cases: glycan array binding signal (z-score within array); higher = stronger binding
# Settings in all cases: glycan notation: IUPAC condensed, linker removed; mutation: F63H
# Neu5Ac(a2-3)GalNAc = target: Neu5Ac(a2-3)GalNAc
# Outline: (§1)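 Negative Z-scores can be read as non-binding. The Z-score is calculated within each array and then averaged across arrays of one protein sequence at different concentrations or buffers and across linkers. Arrays, 3228 in all, were curated from the Consortium for Functional Glycomics database and kept only where the protein sequence was available.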
# [1] = target: Neu5Ac(a2-3)GalNAc(b1-4)GlcNAc
# Outline: as §1
# [2] = target: Neu5Ac(a2-3)[GalNAc(b1-4)]Gal(b1-4)Glc
# Outline: as §1
# [3] = target: Neu5Ac(a2-3)[GalNAc(b1-4)]Gal(b1-4)GlcNAc
# Outline: as §1
# [4] = target: Neu5Ac(a2-3)[GalNAc(b1-4)]Gal(b1-4)GlcNAc(b1-3)GalNAc
# Outline: as §1
# [5] = target: Neu5Ac(a2-3)[Neu5Ac(a2-6)]GalNAc
# Outline: as §1
# Neu5Ac(a2-6)Gal = target: Neu5Ac(a2-6)Gal
# Outline: as §1
# [6] = target: Neu5Ac(a2-6)Gal(b1-3)GlcNAc(b1-3)[Gal(b1-4)GlcNAc(b1-6)]Gal(b1-4)Glc
# Outline: as §1
# Neu5Ac(a2-6)Gal(b1-4)Glc = target: Neu5Ac(a2-6)Gal(b1-4)Glc
# Outline: as §1
# [7] = target: Neu5Ac(a2-6)Gal(b1-4)GlcNAc
# Outline: as §1
# [8] = target: Neu5Ac(a2-6)Gal(b1-4)GlcNAc(b1-2)Man
# Outline: as §1
# [9] = target: Neu5Ac(a2-6)Gal(b1-4)GlcNAc(b1-2)Man(a1-3)Man(b1-4)GlcNAc(b1-4)GlcNAc
# Outline: as §1
# [10] = target: Neu5Ac(a2-6)Gal(b1-4)GlcNAc(b1-2)Man(a1-3)[Gal(b1-4)GlcNAc(b1-2)Man(a1-6)]Man(b1-4)GlcNAc(b1-4)GlcNAc
# Outline: as §1
# [11] = target: Neu5Ac(a2-6)Gal(b1-4)GlcNAc(b1-2)Man(a1-3)[GlcNAc(b1-2)Man(a1-6)]Man(b1-4)GlcNAc(b1-4)GlcNAc
# Outline: as §1
# [12] = target: Neu5Ac(a2-6)Gal(b1-4)GlcNAc(b1-2)Man(a1-3)[GlcNAc(b1-4)][Neu5Ac(a2-6)Gal(b1-4)GlcNAc(b1-2)Man(a1-6)]Man(b1-4)GlcNAc(b1-4)GlcNAc
# Outline: as §1
# [13] = target: Neu5Ac(a2-6)Gal(b1-4)GlcNAc(b1-2)Man(a1-3)[Man(a1-6)]Man(b1-4)GlcNAc(b1-4)GlcNAc
# Outline: as §1
# [14] = target: Neu5Ac(a2-6)Gal(b1-4)GlcNAc(b1-2)Man(a1-3)[Neu5Ac(a2-3)Gal(b1-4)GlcNAc(b1-2)Man(a1-6)]Man(b1-4)GlcNAc(b1-4)GlcNAc
# Outline: as §1
# [15] = target: Neu5Ac(a2-6)Gal(b1-4)GlcNAc(b1-2)Man(a1-3)[Neu5Ac(a2-6)Gal(b1-4)GlcNAc(b1-2)Man(a1-6)]Man(b1-4)GlcNAc(b1-4)GlcNAc
# Outline: as §1
# [16] = target: Neu5Ac(a2-6)Gal(b1-4)GlcNAc(b1-2)Man(a1-3)[Neu5Ac(a2-6)Gal(b1-4)GlcNAc(b1-2)Man(a1-6)]Man(b1-4)GlcNAc(b1-4)[Fuc(a1-6)]GlcNAc
# Outline: as §1
# [17] = target: Neu5Ac(a2-6)Gal(b1-4)GlcNAc(b1-2)Man(a1-6)Man(b1-4)GlcNAc(b1-4)GlcNAc
# Outline: as §1
# [18] = target: Neu5Ac(a2-6)Gal(b1-4)GlcNAc(b1-2)Man(a1-6)[Gal(b1-4)GlcNAc(b1-2)Man(a1-3)]Man(b1-4)GlcNAc(b1-4)GlcNAc
# Outline: as §1
# [19] = target: Neu5Ac(a2-6)Gal(b1-4)GlcNAc(b1-2)Man(a1-6)[GlcNAc(b1-2)Man(a1-3)]Man(b1-4)GlcNAc(b1-4)GlcNAc
# Outline: as §1
# [20] = target: Neu5Ac(a2-6)Gal(b1-4)GlcNAc(b1-2)Man(a1-6)[Man(a1-3)]Man(b1-4)GlcNAc(b1-4)GlcNAc
# Outline: as §1
# [21] = target: Neu5Ac(a2-6)Gal(b1-4)GlcNAc(b1-2)[Neu5Ac(a2-6)Gal(b1-4)GlcNAc(b1-4)]Man(a1-3)[GlcNAc(b1-4)][Neu5Ac(a2-6)Gal(b1-4)GlcNAc(b1-2)[Neu5Ac(a2-6)Gal(b1-4)GlcNAc(b1-6)]Man(a1-6)]Man(b1-4)GlcNAc(b1-4)GlcNAc
# Outline: as §1
# [22] = target: Neu5Ac(a2-6)Gal(b1-4)GlcNAc(b1-2)[Neu5Ac(a2-6)Gal(b1-4)GlcNAc(b1-4)]Man(a1-3)[GlcNAc(b1-4)][Neu5Ac(a2-6)Gal(b1-4)GlcNAc(b1-4)Man(a1-6)]Man(b1-4)GlcNAc(b1-4)GlcNAc
# Outline: as §1
# [23] = target: Neu5Ac(a2-6)Gal(b1-4)GlcNAc(b1-2)[Neu5Ac(a2-6)Gal(b1-4)GlcNAc(b1-6)]Man(a1-6)[Neu5Ac(a2-6)Gal(b1-4)GlcNAc(b1-2)Man(a1-3)][GlcNAc(b1-4)]Man(b1-4)GlcNAc(b1-4)GlcNAc
# Outline: as §1
# [24] = target: Neu5Ac(a2-6)Gal(b1-4)GlcNAc(b1-3)Gal(b1-3)GlcNAc
# Outline: as §1
# [25] = target: Neu5Ac(a2-6)Gal(b1-4)GlcNAc(b1-3)Gal(b1-4)GlcNAc
# Outline: as §1
# [26] = target: Neu5Ac(a2-6)Gal(b1-4)GlcNAc(b1-3)Gal(b1-4)GlcNAc(b1-2)Man(a1-3)[Neu5Ac(a2-6)Gal(b1-4)GlcNAc(b1-3)Gal(b1-4)GlcNAc(b1-2)Man(a1-6)]GalNAc
# Outline: as §1
# [27] = target: Neu5Ac(a2-6)Gal(b1-4)GlcNAc(b1-3)Gal(b1-4)GlcNAc(b1-3)Gal(b1-4)GlcNAc
# Outline: as §1
# [28] = target: Neu5Ac(a2-6)Gal(b1-4)GlcNAc(b1-3)Gal(b1-4)GlcNAc(b1-3)Gal(b1-4)GlcNAc(b1-2)Man(a1-3)[Neu5Ac(a2-6)Gal(b1-4)GlcNAc(b1-3)Gal(b1-4)GlcNAc(b1-3)Gal(b1-4)GlcNAc(b1-2)Man(a1-6)]GalNAc
# Outline: as §1
# [29] = target: Neu5Ac(a2-6)Gal(b1-4)GlcNAc(b1-3)Gal(b1-4)GlcNAc(b1-3)GalNAc
# Outline: as §1
# [30] = target: Neu5Ac(a2-6)Gal(b1-4)GlcNAc(b1-3)Gal(b1-4)GlcNAc(b1-3)[Neu5Ac(a2-6)Gal(b1-4)GlcNAc(b1-3)Gal(b1-4)GlcNAc(b1-6)]GalNAc
# Outline: as §1
# [31] = target: Neu5Ac(a2-6)Gal(b1-4)GlcNAc(b1-3)Gal(b1-4)GlcNAc(b1-6)[Gal(b1-3)]GalNAc
# Outline: as §1
# [32] = target: Neu5Ac(a2-6)Gal(b1-4)GlcNAc(b1-3)Gal(b1-4)[Fuc(a1-3)]GlcNAc(b1-3)Gal(b1-4)[Fuc(a1-3)]GlcNAc
# Outline: as §1
# [33] = target: Neu5Ac(a2-6)Gal(b1-4)GlcNAc(b1-3)GalNAc
# Outline: as §1
# [34] = target: Neu5Ac(a2-6)Gal(b1-4)GlcNAc(b1-3)[Neu5Ac(a2-6)Gal(b1-4)GlcNAc(b1-6)]GalNAc
# Outline: as §1
# [35] = target: Neu5Ac(a2-6)Gal(b1-4)GlcNAc(b1-6)GalNAc
# Outline: as §1
binder,measurement,setting,value
B1,glycan array binding signal (z-score),Neu5Ac(a2-3)GalNAc,-0.047
same,glycan array binding signal (z-score),[1],-0.23
same,glycan array binding signal (z-score),[2],0.326
same,glycan array binding signal (z-score),[3],-0.067
same,glycan array binding signal (z-score),[4],0.14
same,glycan array binding signal (z-score),[5],-0.163
same,glycan array binding signal (z-score),Neu5Ac(a2-6)Gal,0.006
same,glycan array binding signal (z-score),[6],-0.255
same,glycan array binding signal (z-score),Neu5Ac(a2-6)Gal(b1-4)Glc,-0.092
same,glycan array binding signal (z-score),[7],-0.233
same,glycan array binding signal (z-score),[8],0.043
same,glycan array binding signal (z-score),[9],-0.19
same,glycan array binding signal (z-score),[10],-0.484
same,glycan array binding signal (z-score),[11],-0.73
same,glycan array binding signal (z-score),[12],-0.516
same,glycan array binding signal (z-score),[13],-0.377
same,glycan array binding signal (z-score),[14],-0.144
same,glycan array binding signal (z-score),[15],0.043
same,glycan array binding signal (z-score),[16],0.709
same,glycan array binding signal (z-score),[17],-0.262
same,glycan array binding signal (z-score),[18],-0.183
same,glycan array binding signal (z-score),[19],0.172
same,glycan array binding signal (z-score),[20],-0.239
same,glycan array binding signal (z-score),[21],-0.59
same,glycan array binding signal (z-score),[22],0.31
same,glycan array binding signal (z-score),[23],-0.298
same,glycan array binding signal (z-score),[24],-0.301
same,glycan array binding signal (z-score),[25],-0.374
same,glycan array binding signal (z-score),[26],-0.58
same,glycan array binding signal (z-score),[27],0.157
same,glycan array binding signal (z-score),[28],-0.265
same,glycan array binding signal (z-score),[29],-0.134
same,glycan array binding signal (z-score),[30],0.372
same,glycan array binding signal (z-score),[31],-0.011
same,glycan array binding signal (z-score),[32],-0.116
same,glycan array binding signal (z-score),[33],-1.46
same,glycan array binding signal (z-score),[34],-0.597
same,glycan array binding signal (z-score),[35],0.076
